# Data from PubChem BioAssay AID248 (DTP/NCI, 2004).
# Inconclusive results and toxic doses are left out. Certain results were filed several times, with different values. Only these are listed. An entry can have further records. The values listed for one entry are repeated measurements (runs, samples, wells, individuals or studies). Brackets tell where a record comes from. Letters hold for one entry only.
# System: L1210 leukemia ip in BDF1 mice, survival T/C
# Assay: NCI In Vivo Anticancer Drug Screen. Data for tumor model L1210 Leukemia (intraperitoneal) in B6D2F1 (BDF1) mice
# Settings: endpoint: mean survival time, higher = longer survival
smiles,measurement,setting,value
Nc1nc(=S)c2ncn(C3OC(CO)C(O)C3O)c2[nH]1 (stereo unspecified),T/C,"dose: 100.0 mg/kg/injection, schedule: Q01DX005 (ip), vehicle: saline",106 % of control [sample A] and 160 % of control [sample B]
N#Cc1cn(C2OC(CO)C(O)C2O)c2ncnc(N)c12 (stereo unspecified),T/C,"dose: 0.19 mg/kg/injection, schedule: Q01DX005 (ip), vehicle: saline",107 % of control and 150 % of control
CCCN(CCC)CCCOC(=O)c1ccc(N)cc1,T/C,"dose: 100.0 mg/kg/injection, schedule: Q04DX003 (ip), vehicle: saline","98 % of control, 100 % of control, 156 % of control"
O=c1[nH]cc(N(CCCl)CCCl)c(=O)[nH]1,T/C,"dose: 2.2 mg/kg/injection, schedule: Q03DX006 (ip), vehicle: carboxymethylcellulose (CMC)",90 % of control and 192 % of control
same,T/C,"dose: 2.5 mg/kg/injection, schedule: Q07DX003 (ip), vehicle: carboxymethylcellulose (CMC)",101 % of control and 152 % of control
NC(CCSCc1ccc(N(CCCl)CCCl)cc1)C(=O)O (stereo unspecified),T/C,"dose: 18.0 mg/kg/injection, schedule: Q01DX Z (ip), vehicle: saline","120 % of control, 155 % of control, 175 % of control"
same,T/C,"dose: 24.0 mg/kg/injection, schedule: Q01DX Z (ip), vehicle: saline",122 % of control and 182 % of control
S=c1nc[nH]c2nc[nH]c12.[Ag],T/C,"dose: 25.0 mg/kg/injection, schedule: Q01DX009 (ip), vehicle: carboxymethylcellulose (CMC)",118 % of control and 154 % of control
CC(C)CC(NC(=O)c1ccccc1)C(=O)O (stereo unspecified),T/C,"dose: 400.0 mg/kg/injection, schedule: Q01DX009 (ip), vehicle: saline with Tween-80",92 % of control and 159 % of control
O=C(O)C1CSC(c2ccccc2)N1 (stereo unspecified),T/C,"dose: 400.0 mg/kg/injection, schedule: Q01DX001 (ip), vehicle: other","91 % of control, 93 % of control, 156 % of control"
Cc1ccc(S(=O)(=O)OCCN(CCOS(=O)(=O)c2ccc(C)cc2)c2ccc(F)cc2)cc1,T/C,"dose: 36.0 mg/kg/injection, schedule: Q01DX009 (ip), vehicle: saline",120 % of control and 152 % of control
Cc1ccc(NC(=O)N(CCCl)N=O)cc1NC(=O)c1ccccc1,T/C,"dose: 118.0 mg/kg/injection, schedule: Q01DX009 (ip), vehicle: carboxymethylcellulose (CMC)","103 % of control, 156 % of control, 174 % of control"
CCCCn1cnc2c(=S)nc[nH]c21,T/C,"dose: 128.0 mg/kg/injection, schedule: Q01DX009 (ip), vehicle: saline",118 % of control and 154 % of control
same,T/C,"dose: 128.0 mg/kg/injection, schedule: Q01DX Z (ip), vehicle: saline",117 % of control and 150 % of control
C(=N\Nc1nn[nH]n1)/c1ccncc1,T/C,"dose: 200.0 mg/kg/injection, schedule: Q01DX009 (ip), vehicle: saline with Tween-80",100 % of control and 191 % of control
NC(CSCc1ccc(N(CCCl)CCCl)cc1)C(=O)O (stereo unspecified),T/C,"dose: 13.0 mg/kg/injection, schedule: Q01DX Z (ip), vehicle: other","115 % of control, 151 % of control, 156 % of control"
